# Reference: paper PMC6919601, “Identification of Plasmodium dipeptidyl aminopeptidase allosteric inhibitors by high throughput screening” (PLoS ONE, 2019)
# Several values for one entry are separate records, joined by “and”; a condition that tells them apart may be missing. Equal values may be shown once. Among all 110,000 compounds or so, about 230 (0.21%) showed an effect of 50% or more. The list shows a part of the results.
# Molecular target: DPAP1 (Plasmodium falciparum, UniProt Q8IIJ9)
# Test: primary screen, percent inhibition; read by cleavage of a fluorogenic dipeptide substrate; higher = more effect of the substance
# Set-up: species or system P. falciparum D10 trophozoite lysates; single well
# 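Also: 30 min substrate incubation versus DMSO and 10 µM JCP410 controls.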
# DPAP1, sequence (Q8IIJ9 whole entry, looked up): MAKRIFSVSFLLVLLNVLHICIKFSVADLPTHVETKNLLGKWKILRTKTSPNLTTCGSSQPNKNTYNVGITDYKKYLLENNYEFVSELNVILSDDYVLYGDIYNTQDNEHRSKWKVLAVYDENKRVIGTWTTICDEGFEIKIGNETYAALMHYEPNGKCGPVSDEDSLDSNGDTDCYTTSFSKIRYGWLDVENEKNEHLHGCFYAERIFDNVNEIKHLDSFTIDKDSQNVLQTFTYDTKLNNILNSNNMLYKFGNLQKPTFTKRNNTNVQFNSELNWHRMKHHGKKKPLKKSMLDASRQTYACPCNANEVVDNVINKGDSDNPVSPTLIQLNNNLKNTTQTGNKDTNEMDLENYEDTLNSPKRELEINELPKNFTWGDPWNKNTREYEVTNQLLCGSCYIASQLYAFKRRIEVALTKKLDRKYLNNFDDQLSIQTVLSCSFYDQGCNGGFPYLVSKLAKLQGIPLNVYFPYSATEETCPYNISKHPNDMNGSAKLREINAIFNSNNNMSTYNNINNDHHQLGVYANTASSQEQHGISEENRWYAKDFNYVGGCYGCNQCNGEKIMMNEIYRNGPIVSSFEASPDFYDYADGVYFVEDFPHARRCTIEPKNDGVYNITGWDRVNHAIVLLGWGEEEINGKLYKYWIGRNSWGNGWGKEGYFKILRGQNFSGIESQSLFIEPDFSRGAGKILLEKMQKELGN
row,Structure (SMILES),% Inhibition @ 10 uM
1,O=C(c1ccc(F)cc1)N1CCC(C(=O)N(Cc2ccccc2)Cc2ccccc2)CC1,3.47%
2,Cc1ccc(-n2nnc(-c3nc(-c4cccs4)no3)c2N)cc1,-1.35%
3,Cn1c(=O)c2ncn(CC(=O)Nc3ccc4c5c(cccc35)CC4)c2n(C)c1=O,-3.43%
4,Cc1ccc(C)c(OCC(O)CN2CCN(c3ccccc3F)CC2)c1 (centres unmarked),6.73%
5,CCOC(=O)c1c(C)[nH]c(C)c1S(=O)(=O)N1CCN(Cc2ccccc2)CC1,4.25%
6,C=CCOc1ccc(C(=O)N(Cc2ccccc2F)C2CCS(=O)(=O)C2)cc1 (centres unmarked),-3.12%
7,COc1cccc(OC)c1C(=O)NCCc1ccccc1,14.9%
8,CCOC(=O)N1CCc2[nH]c3ccc(OC)cc3c2C1,6.94%
9,O=c1oc2ccccc2c(Cl)c1CN1CCCC1,6.83%
10,CCN1CCN(Cc2cccc(OC)c2)CC1,3.25%
11,CCOc1ccccc1C(=O)Nc1nc(-c2ccccc2)cs1,4.3%
12,O=C(Cn1nc(C(F)(F)F)cc1C1CC1)NCc1ccco1,5.92% and -3.19%
13,Cc1ccc(NC(=O)CCC(=O)c2c[nH]c3ccccc23)cc1,-2.51%
14,Nc1nonc1-c1nc2ccccc2n1CC(=O)N1CCCCC1,-0.169%
15,COCCCN1C(=O)S/C(=C/c2c[nH]c3ccccc23)C1=O,3.83%
16,O=C(c1ccccc1)N1N=C(c2ccc(Br)cc2)CC1c1ccco1 (centres unmarked),4.58%
17,Cc1cc(C)cc(NC(=O)c2ccccc2N)c1,-4.5%
18,C=CCc1c(O)nc(SCc2ccccc2Cl)nc1O,-3.28%
19,CCn1c(SCC(=O)NCc2ccco2)nnc1-c1cccnc1,-1.46%
20,COc1ccc(N2C(=O)CSC2c2ccccc2)cc1 (centres unmarked),2.74%
21,CCOC(=O)/C=C(\C)N1N=C2c3cc(OC)ccc3CCC2C1c1ccccc1 (centres unmarked),2%
22,CC1(C)CC(=O)C2=C(C1)OC(N)=C(C#N)C2c1ccc(Cl)c(Cl)c1 (centres unmarked),1.54%
23,Cc1cc(C)n(S(=O)(=O)c2cc(C(=O)O)c(Cl)cc2Cl)n1,3.72%
24,Brc1ccc(NCc2cccnc2)cc1,2.94%
25,CN(Cc1ccccc1)C(=O)COc1ccc2ccccc2c1,3.48%
26,COc1ccc(S(=O)(=O)c2c(C)cc(C)cc2C)cc1,-0.591%

row,Structure (SMILES),% Inhibition @ 10 uM
1,CC1CCc2c(C(=O)NCC(C)c3ccccc3)csc2C1 (centres unmarked),0.277%
2,CC1CCN(C(=O)c2cn(C3CCCCC3)c(=O)c3c2c2ccccc2n3C)CC1,3.48%
3,CC(=O)c1cccc(NC(=O)NC2CCCCC2)c1,2.99%
4,COc1ccc(C(=O)N2CCN(c3ccccc3OC)CC2)c(OC)c1,8.06%
5,O=C(NC(Cc1ccc(O)cc1)C(=O)O)c1ccco1 (centres unmarked),1.7%
6,CCN(CC)CCCOC(=O)c1ccc(O)cc1O,1.7%
7,Cc1ccnc(NS(=O)(=O)c2ccc(NC(=O)c3sc4ccccc4c3Cl)cc2)n1,1.02%
8,COc1cccc(CNCc2ccc(OC)cc2OC)c1,4.3%
9,O=C(Nc1nc2ccccc2s1)c1cc2ccccc2c(=O)o1,3.94%
10,N#CCNC(=O)[C@H](CSCc1ccccc1)NC(=O)c1cnc2ccccc2c1,-5.21%
11,COc1ccccc1NC(=O)C(Cc1ccc([N+](=O)[O-])cc1)N1C(=O)c2ccccc2C1=O (centres unmarked),2.55%
12,CCOc1ccccc1C1C2=C(O)CCCC2=Nc2nc(SCc3ccc(C(=O)O)cc3)nn21 (centres unmarked),3.2%
13,COc1cccc(C2CC(=O)NC(SCc3ccccc3)=C2C#N)c1 (centres unmarked),-2.35%
14,NS(=O)(=O)c1ccc(CCNC(=O)c2ccc3c(c2)sc2nc(-c4ccc(F)cc4)cn23)cc1,-0.901%
15,O=C(NCCN1CCOCC1)C12CC3CC(CC(C3)C1)C2,-0.436%
16,CCOC(=O)c1c(C)[nH]c(C)c1S(=O)(=O)NCCC(C)N1CCOCC1 (centres unmarked),0.00978%
17,Cc1ccnc(NC(=O)c2ccccc2NC(=O)C(C)(C)C)c1,4.44%
18,O=C(C1=C(Nc2ccccc2)c2ccccc2S(=O)(=O)N1)c1ccccc1,2.38%
19,O=C(c1ccc(COc2cc(Cl)ccc2Cl)o1)N1CCSCC1,2.32%
20,COc1ccc(OCc2nn3c(C4COc5ccccc5O4)nnc3s2)cc1 (centres unmarked),4.47%
21,O=C(O)C1C2C=CC(O2)C1C(=O)NCCCN1CCOCC1 (centres unmarked),-2.22%
22,Cc1noc(C(=O)NCc2ccccc2)c1Cl,3.2%
23,Cc1ccc2nc(N(CCN(C)C)C(=O)CCS(=O)(=O)c3ccccc3)sc2c1,-5.88%
24,Cc1nc2nc(C)c(CCC(=O)NCc3ccc(F)cc3)c(C)n2n1,-4.1%
25,Cc1ccc(S(=O)(=O)NCCCCCC(=O)Nc2ccccn2)cc1,2.32%
26,CNC(=O)c1c(NC(=O)c2cc(=O)c3ccc(C)cc3o2)sc2c1CCCC2,0.248%

row,Structure (SMILES),% Inhibition @ 10 uM
1,CC1CCc2c(sc(NC(=O)C3CCCO3)c2C(N)=O)C1 (centres unmarked),-7.19%
2,Cc1cccc(CNC(=O)C2CCCN2c2nn3c(=O)cc(C)nc3s2)c1 (centres unmarked),-3.79%
3,CCCN1C(=O)c2[nH]nc(-c3ccc(OC)cc3)c2C1c1cccs1 (centres unmarked),-6.56%
4,O=C(CSc1cn(Cc2ccc(F)cc2)c2ccccc12)N1CCCCC1,4.65%
5,CCc1c(C)nc2n(c1=O)C(CS(=O)(=O)c1ccc(C)cc1)CS2 (centres unmarked),3.54%
6,Cc1cc(C)c2ccc(C3=C(O)c4ccccc4C3=O)nc2c1O,0.266%
7,Cc1c(Cl)c(C(=O)NCc2ccc(F)cc2)nn1C,-4.75%
8,O=C(N/C(=C\c1ccc(-c2ccc(F)cc2)o1)C(=O)N1CCOCC1)c1ccccc1,2.17%
9,CCN1CCCC1CNC(=O)c1nn(C)c2c1CSc1ccccc1-2 (centres unmarked),1.68%
10,CCCCSCCCNC(=O)c1ccc(CS(=O)(=O)c2ccccc2)o1,-1.28%
11,O=C1CC(c2ccc3c(c2)OCO3)C2=C(CC(c3cccs3)CC2=O)N1 (centres unmarked),3.5%
12,Cc1nnc(N2CCC(C(=O)NCCN3CCOCC3)CC2)c2nn(-c3ccccc3)c(C)c12,-6.13%
13,CN(C)S(=O)(=O)c1ccc(N2CCCC2=O)c([N+](=O)[O-])c1,0.989%
14,Cc1ccc(-c2nc3scc(CCNC(=O)c4ccco4)n3n2)cc1,6.56%
15,COc1ccc(C2=NN(C(=O)CCC(=O)O)C(c3ccccc3OC)C2)cc1 (centres unmarked),3.17%
16,COc1ccc(C(=O)Nc2c(Cl)cc(Cl)cc2C(=O)NCC2CCCO2)cc1 (centres unmarked),-3.39%
17,CCCCNC(=O)Nc1nc(C23CC4CC(CC(c5ccc(C)cc5)(C4)C2)C3)cs1,2.58%
18,CCOc1ccccc1NC(=O)CN(c1ccccc1C)S(=O)(=O)c1ccccc1,-5.69%
19,CC1CC(C)CN(CCCNC(=O)Cn2ncn3nc(-c4cccs4)cc3c2=O)C1 (centres unmarked),2.27%
20,O=[N+]([O-])c1ccc(N2CCOCC2)cc1OCCc1ccccc1,3.18%
21,COc1ccccc1-c1cc(C(F)F)n2ncc(C(=O)NCC34CC5CC(CC(C5)C3)C4)c2n1,-4.73%
22,CCOC(=O)Nc1ccc(-c2ccc(NC(=O)OCC)cc2N)cc1,0.245%
23,Fc1ccc(CN2CCN(C/C=C/c3ccccc3)CC2)cc1Br,2.23%
24,c1ccc(N2CCN(c3ncnc4c3nc3n4CCCCC3)CC2)nc1,5.38%
25,COc1ccccc1/C=C(\NC(=O)c1ccc(C)cc1)C(=O)N1CCOCC1,1.01%
26,O=C(NCc1cccnc1)c1c(Cl)cccc1Cl,-1.6%

row,Structure (SMILES),% Inhibition @ 10 uM
1,CC(=O)OCCNC(=O)c1c([N+](=O)[O-])ncn1C,-6.22%
2,COCCNC(=O)C1CCN(c2nnc(N3CCCC3=O)s2)CC1,-1.08%
3,Cc1cc(O)n2nc(-c3ccncc3)nc2n1,-2.19%
4,COC(=O)c1cc2ccsc2n1Cc1ccccc1C,-2.34%
5,CC(=O)Nc1cccc(NC(=O)c2cccs2)c1,1.96%
6,Cc1nc2n(n1)C(c1ccc(Cl)cc1)C=C(c1ccc(Cl)cc1)N2 (centres unmarked),-3.37%
7,CCOc1ccccc1N(CC(=O)NC1CC2CCC1C2)S(C)(=O)=O (centres unmarked),14.8%
8,COc1cc(-c2nc3s/c(=C\c4ccc(C)o4)c(=O)n3n2)cc(OC)c1OC,-2.98%
9,CN1CCN(C2C3CC4CC(C3)CC2C4)CC1 (centres unmarked),0.217% and -1.56%
10,Cc1ccc(C2CC(c3ccccc3F)n3nnnc3N2)cc1C (centres unmarked),1.86%
11,O=C(CN1CCCCC1)Nc1ccc(OC(F)(F)Cl)cc1,-2.15%
12,COc1ccc(OC)c(C2SCCN2S(=O)(=O)c2ccc3ccccc3c2)c1 (centres unmarked),-3.4%
13,COc1ccc(-c2nc(SC(C)C)cc(N3CCN(C)CC3)n2)cc1,3.24%
14,COC(=O)c1sc(-c2ccccc2)cc1NC(=O)c1ccc(C)cc1,-0.447%
15,O=C(c1cccnc1)N1CCN(Cc2ccccc2Cl)CC1,-3.03%
16,C=CCSC(=O)NC(=O)Cc1ccccc1,-4.3%
17,O=C(O)C1CCC(N2C(=O)C3CCCCC3C2=O)CC1 (centres unmarked),5.58%
18,CCn1c(C(=O)N2CCC(C(=O)N3CCN(C(=O)c4ccco4)CC3)CC2)cc2sccc21,-0.0745%
19,COC(=O)c1c(C)oc2ccc(O)c(CN(C)C3CCN(C)CC3)c12,-2.99%
20,CCCCN(C)CCNC(=O)CCn1nc(-c2ccc(C)cc2)ccc1=O,-1.79%
21,CCCc1ccc(-c2ccc(C#N)c(O)n2)cc1,3.32%
22,CCN(Cc1nc(-c2cccc(C)c2)no1)S(=O)(=O)c1c(C)cc(C)cc1C,0.758%
23,COc1ccc(-c2nc(S(=O)(=O)c3ccccc3)c(N3CCOCC3)o2)cc1OC,-1.96%
